In this assay the target is Nonstructural protein 3 (Zika virus) (UniProt A0A024AXB9).
[1] abbreviates: PRVABC59, Concentration 15.0 uM, Number of replicates 1.0.
Setting [2] is: PRVABC59, Concentration 50.0 uM, Number of replicates 1.0.
[3] abbreviates: PRVABC59, Concentration 10.0 uM, Number of replicates 1.0.

The whole screen tested about 2,700 compounds, of which about 160 (5.9%) showed an effect of 50% or more. The list shows a part of the results.

These results are taken from ChEMBL document CHEMBL5606458, “ASAP - ZIKV NS2B-NS3 protease fluorescence single point” (2024).

For orientation: inhibition means the change of the read-out against control, counted positive when it falls.

Chain of UniProt A0A024AXB9 (A0A024AXB9 as listed by the source): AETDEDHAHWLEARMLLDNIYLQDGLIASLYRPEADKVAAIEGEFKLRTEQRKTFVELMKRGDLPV

On to `O=C(N[C@H]1C[C@@H]1c1ccc(F)c(F)c1)c1cc(Cl)ccc1NS(=O)(=O)c1ccc(Oc2ccccc2Cl)cc1`, for which the inhibition under setting [1] came out at 25.4%.

Regarding `O=C(NCc1cccc(Cl)c1Cl)c1cc(Cl)ccc1NS(=O)(=O)c1ccc(Oc2ccccc2Cl)cc1`, the inhibition under setting [1] amounted to 32.7%.

Take `CSc1ncc(C#N)c(NC(=O)C2CCN(c3ccc(C=O)cc3)CC2)n1`: under setting [2], the inhibition amounted to 20.4%.

Turning to `O=Cc1ccc(N2CCC(C(=O)Nc3ccccc3OCC(F)(F)F)CC2)cc1`, under setting [2], the inhibition turned out to be 22.1%.

For the compound `O=C(Nc1ccc(OCc2ccccn2)c(Cl)c1)c1cc(Cl)ccc1NS(=O)(=O)c1ccc(Oc2ccccc2Cl)cc1`, the inhibition under setting [1] is 41.3%.

As to `Cc1cc(-n2nccc2NC(=O)[C@]2(c3ccc(F)cc3)CCCNC2)ncn1`, the inhibition runs as follows: (PRVABC59, Concentration 49.5 uM, Number of replicates 2.0, Standard deviation 3.3341951652888615 %) 3.08%; (PRVABC59, Concentration 99.01 uM, Number of replicates 2.0, Standard deviation 1.8407534934696543 %) 6.24%; (PRVABC59, Concentration 198.0 uM, Number of replicates 2.0, Standard deviation 2.0184955201845844 %) 11.4%.

Take `C[C@@H](c1cccc2ccccc12)N(C)C(=O)C1CCN(c2ccc(C=O)cc2)CC1`: the inhibition under setting [2] was determined as 26.9%.

For `O=Cc1ccc(N2CCC(C(=O)NCc3cc(F)c(F)c(F)c3)CC2)cc1`, under setting [3], the inhibition came to 27.3%.

Turning to `CNC(=O)c1nc(C)c(C)c(N2CC[C@@H](NC(=O)c3[nH]cnc3C(C)(C)C)C2)n1`, the inhibition is -0.757% (PRVABC59, Concentration 49.5 uM, Number of replicates 2.0, Standard deviation 2.081122365323892 %); 1.43% (PRVABC59, Concentration 99.01 uM, Number of replicates 2.0, Standard deviation 1.432539517867814 %); 4.59% (PRVABC59, Concentration 198.0 uM, Number of replicates 2.0, Standard deviation 2.8388126139814567 %).

Take `C[C@@H](CNC(=O)c1cc(Cl)ccc1NS(=O)(=O)c1ccc(Oc2ccccc2Cl)cc1)N(C)c1ccccc1`: the inhibition under setting [1] stood at 24.5%.

As for `CN(C(=O)c1cc(Cl)ccc1NS(=O)(=O)c1ccc(Oc2ccccc2Cl)cc1)[C@H]1CS(=O)(=O)C[C@@H]1O`, under setting [1], the inhibition amounted to 1.21%.

Take `Cc1ccc(C(=O)N2CCC(NC(=O)c3cc(Cl)ccc3NS(=O)(=O)c3ccc(Oc4ccccc4Cl)cc3)CC2)cc1`: under setting [1], the inhibition worked out at 10.3%.

Consider `Cc1cc(CO)c2cccc(C[C@H](NC(=O)Cc3c(C)c4c(=O)[nH]n(C)c4[nH]c3=O)C(=O)O)c2n1`, for which the inhibition (PRVABC59, Concentration 49.95 uM, Number of replicates 2.0, Standard deviation 1.4552620640117953 %) is -3.13% and the inhibition (PRVABC59, Concentration 99.9 uM, Number of replicates 2.0, Standard deviation 1.129082630057862 %) is 1.42%.

For the compound `Cc1[nH]c(C#N)cc1C(=O)N(C)C1CCN(C(=O)c2ccc3c(C)n[nH]c3c2)CC1`, the inhibition (PRVABC59, Concentration 49.5 uM, Number of replicates 2.0, Standard deviation 3.083795132754788 %) is -0.895%; the inhibition (PRVABC59, Concentration 99.01 uM, Number of replicates 2.0, Standard deviation 3.688762314029368 %) was found to be 0.363%; the inhibition (PRVABC59, Concentration 198.0 uM, Number of replicates 2.0, Standard deviation 2.4301229690473223 %) came to 2.36%.

Turning to `Cn1cc(NC(=O)c2ccccc2C(F)(F)F)c(-c2ccc(N)nc2)n1`, the inhibition by setting is: (PRVABC59, Concentration 49.5 uM, Number of replicates 2.0, Standard deviation 1.6563133210019785 %) -3.24%; (PRVABC59, Concentration 99.01 uM, Number of replicates 2.0, Standard deviation 1.8102304086032768 %) -3.79%; (PRVABC59, Concentration 198.0 uM, Number of replicates 2.0, Standard deviation 1.7993335938018762 %) -1.78%.

Turning to `COc1cc(C(=O)NCCO)nc(N2CCNCC2)n1`, the inhibition is -5.06% (PRVABC59, Concentration 49.5 uM, Number of replicates 2.0, Standard deviation 2.487605622738481 %); -6.15% (PRVABC59, Concentration 99.01 uM, Number of replicates 2.0, Standard deviation 3.0621706806019096 %); -4.46% (PRVABC59, Concentration 198.0 uM, Number of replicates 2.0, Standard deviation 3.3799226836086955 %).

`CNC(=O)c1cc(Cl)ccc1NS(=O)(=O)c1cc(Cl)cc(C(=O)NC)c1OC`: the inhibition is 2.41% (PRVABC59, Concentration 49.5 uM, Number of replicates 2.0, Standard deviation 3.3855207762004267 %); 7.41% (PRVABC59, Concentration 99.01 uM, Number of replicates 2.0, Standard deviation 5.195492929330909 %); 13.7% (PRVABC59, Concentration 198.0 uM, Number of replicates 2.0, Standard deviation 4.6757612585549415 %).

Turning to `CNC(=O)C[C@H]1CCN1S(=O)(=O)c1ccc(Oc2ccccc2Cl)cc1`, the inhibition (PRVABC59, Concentration 49.5 uM, Number of replicates 2.0, Standard deviation 2.758296707579094 %) was -0.578%; the inhibition (PRVABC59, Concentration 99.01 uM, Number of replicates 2.0, Standard deviation 2.5849784140838667 %) was determined as 0.719%; the inhibition (PRVABC59, Concentration 198.0 uM, Number of replicates 2.0, Standard deviation 2.354592023299434 %) was 4.24%.

`O=C(NCCc1cc(Cl)ccc1Cl)c1cc(Cl)ccc1NS(=O)(=O)c1ccc(Oc2ccccc2Cl)cc1`: the inhibition under setting [1] worked out at 16.2%.

Take `Cc1cc(CO)c2cccc(Cc3ccccc3C(=O)NCc3sccc3C)c2n1`: the inhibition is -7.89% (PRVABC59, Concentration 49.95 uM, Number of replicates 2.0, Standard deviation 0.8704140180486788 %) and -4.68% (PRVABC59, Concentration 99.9 uM, Number of replicates 2.0, Standard deviation 3.3610577542152194 %).

With `O=C(NCc1ccc(-c2ccccc2)cc1)c1cc(Cl)ccc1NS(=O)(=O)c1ccc(Oc2ccccc2Cl)cc1`, the inhibition under setting [1] was determined as 9%.

Consider `COc1cc(CC(=O)NCc2ccccn2)nc(N2CCNCC2)n1`, for which the inhibition is, setting by setting: (PRVABC59, Concentration 49.5 uM, Number of replicates 2.0, Standard deviation 1.9153722971220695 %) -5.67%; (PRVABC59, Concentration 99.01 uM, Number of replicates 2.0, Standard deviation 1.5355688377518466 %) -5.4%; (PRVABC59, Concentration 198.0 uM, Number of replicates 2.0, Standard deviation 2.2860895703029196 %) -5.81%.

Take `CCN(Cc1ccc(C(F)(F)F)cc1)C(=O)c1cc(Cl)ccc1NS(=O)(=O)c1ccc(Oc2ccccc2Cl)cc1`: the inhibition under setting [1] came out at 23.3%.

On to `O=C(NC12CC3CC(CC(C3)C1)C2)c1cc(Cl)ccc1NS(=O)(=O)c1ccc(Oc2ccccc2Cl)cc1`, for which the inhibition under setting [1] was 27.2%.

With `COc1ccc([C@@H](C)NC(=O)C2CCN(c3ccc(C=O)cc3)CC2)cc1OC`, the inhibition under setting [3] turned out to be 22.9%.

Take `CS(=O)(=O)Nc1ccc(C(=O)Nc2nc3ccccc3s2)cc1`: the inhibition (PRVABC59, Concentration 49.5 uM, Number of replicates 2.0, Standard deviation 0.4203534480847361 %) was -1.75%; the inhibition (PRVABC59, Concentration 99.01 uM, Number of replicates 2.0, Standard deviation 1.620548095411513 %) is -1.84%; the inhibition (PRVABC59, Concentration 198.0 uM, Number of replicates 2.0, Standard deviation 1.02140189967847 %) is -1.45%.

With `Cc1c(NC(=O)C2CCN(c3ccc(C=O)cc3)CC2)c(=O)n(-c2ccccc2)n1C`, the inhibition under setting [2] stood at 25.6%.

As for `CNC(=O)c1cc(Cl)cc(C)c1NS(=O)(=O)c1ccc(Oc2ccccc2Cl)cc1`, the inhibition is -0.951% (PRVABC59, Concentration 49.5 uM, Number of replicates 2.0, Standard deviation 3.2928672721913825 %); -2.2% (PRVABC59, Concentration 99.01 uM, Number of replicates 2.0, Standard deviation 3.4234503366337914 %); -3.57% (PRVABC59, Concentration 198.0 uM, Number of replicates 2.0, Standard deviation 3.9523113625087185 %).

With `c1cnc2c(C3CCN(Cc4cscn4)CC3)c[nH]c2c1`, the inhibition runs as follows: (PRVABC59, Concentration 49.5 uM, Number of replicates 2.0, Standard deviation 3.682232334202181 %) -1.48%; (PRVABC59, Concentration 99.01 uM, Number of replicates 2.0, Standard deviation 2.7567516884063816 %) -3%; (PRVABC59, Concentration 198.0 uM, Number of replicates 2.0, Standard deviation 1.9133167953201933 %) -1.59%.

For the compound `O=Cc1ccc(N2CCC(C(=O)N3CCC[C@H]3c3cccc(F)c3)CC2)cc1`, the inhibition under setting [2] worked out at 24.6%.

`NCc1cccc(NC(=O)[C@@H](Cc2ccc(O)cc2)NC(=O)OCc2ccccc2)c1`: the inhibition (PRVABC59, Concentration 49.5 uM, Number of replicates 2.0, Standard deviation 1.0794413132384577 %) amounted to 4.38%; the inhibition (PRVABC59, Concentration 99.01 uM, Number of replicates 2.0, Standard deviation 0.37435168022164167 %) stood at 9.22%; the inhibition (PRVABC59, Concentration 198.0 uM, Number of replicates 2.0, Standard deviation 0.8468347107681681 %) stood at 19%.

Consider `CN1CCN(C2CCN(C(=O)c3cc(Cl)ccc3NS(=O)(=O)c3ccc(Oc4ccccc4Cl)cc3)CC2)CC1`, for which the inhibition under setting [1] came out at 1.35%.

As for `CC(C)(CO)NC(=O)c1cc(Cl)cc(NC(=O)c2cnc(-c3ccc(Cl)cc3)[nH]2)c1`, the inhibition runs as follows: (PRVABC59, Concentration 49.5 uM, Number of replicates 2.0, Standard deviation 1.2332134367543028 %) -0.514%; (PRVABC59, Concentration 99.01 uM, Number of replicates 2.0, Standard deviation 0.12370791246262977 %) 1.95%; (PRVABC59, Concentration 198.0 uM, Number of replicates 2.0, Standard deviation 0.6050092438293936 %) 5.2%.

Turning to `Cc1cnccc1NC(=O)CCCn1c(=O)oc2ccccc21`, the inhibition is -2.09% (PRVABC59, Concentration 49.5 uM, Number of replicates 2.0, Standard deviation 0.527352411042616 %); -3.22% (PRVABC59, Concentration 99.01 uM, Number of replicates 2.0, Standard deviation 2.889325106159581 %); -0.216% (PRVABC59, Concentration 198.0 uM, Number of replicates 2.0, Standard deviation 0.5515984603931448 %).

Consider `CCc1ccc([N+](=O)[O-])cc1NC(=O)c1cc(Cl)ccc1NS(=O)(=O)c1ccc(Oc2ccccc2Cl)cc1`, for which the inhibition under setting [1] is 29.9%.

Turning to `Cc1cn[nH]c1-c1nn(C)cc1NC(=O)c1ccccc1C(F)(F)F`, the inhibition is -7.9% (PRVABC59, Concentration 49.5 uM, Number of replicates 2.0, Standard deviation 1.0225233430236478 %); -7.43% (PRVABC59, Concentration 99.01 uM, Number of replicates 2.0, Standard deviation 0.5934117798183479 %); -5.9% (PRVABC59, Concentration 198.0 uM, Number of replicates 2.0, Standard deviation 1.8923446077948693 %).

As to `COCCCN1CCC(NC(=O)c2cc(Cl)ccc2NS(=O)(=O)c2ccc(Oc3ccccc3Cl)cc2)CC1`, the inhibition under setting [1] was 6.54%.

As for `Cn1cc(NC(=O)c2cccc3ncccc23)cn1`, the inhibition runs as follows: (PRVABC59, Concentration 49.5 uM, Number of replicates 2.0, Standard deviation 3.392303236065074 %) -6.29%; (PRVABC59, Concentration 99.01 uM, Number of replicates 2.0, Standard deviation 4.211868261497117 %) -5.3%; (PRVABC59, Concentration 198.0 uM, Number of replicates 2.0, Standard deviation 3.7498965706755105 %) -3.61%.
